Results as given in the supplement of paper PMC10681739.
± gives the standard deviation of the averaged measurements. Whole data set: some 4,100 sequences, median “arbitrary fluorescence units” near 780, cut for the highest 2% near 22,000. The list shows a part of the results.

What follows are sequences tested against T1, ETS1 (UniProt P14921) (assay: ETS1 binding intensity (PBM fluorescence), ETS1 alone (arbitrary fluorescence units); higher = stronger binding). Conditions: ETS1 concentration 1 nM; RUNX1 concentration 0 nM.
T1 sequence: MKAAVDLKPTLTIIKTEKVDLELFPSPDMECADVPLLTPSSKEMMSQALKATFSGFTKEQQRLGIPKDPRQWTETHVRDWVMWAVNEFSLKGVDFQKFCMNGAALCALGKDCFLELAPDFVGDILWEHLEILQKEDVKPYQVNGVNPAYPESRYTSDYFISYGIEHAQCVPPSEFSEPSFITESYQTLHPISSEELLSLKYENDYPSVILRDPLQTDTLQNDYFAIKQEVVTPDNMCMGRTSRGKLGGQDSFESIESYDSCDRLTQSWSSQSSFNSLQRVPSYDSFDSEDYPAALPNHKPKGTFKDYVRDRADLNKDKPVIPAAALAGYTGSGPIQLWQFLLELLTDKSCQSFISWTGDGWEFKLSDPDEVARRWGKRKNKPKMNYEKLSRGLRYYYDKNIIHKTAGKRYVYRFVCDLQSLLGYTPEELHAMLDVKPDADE
Method in brief: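 Recombinant full-length human ETS1 was applied at 1 nM, without RUNX1, to double-stranded Agilent 4 × 180k arrays of 36-bp genomic probes carrying a mutated RUNX1 partner site, following standard PBM protocols. Detection used an anti-ETS1 antibody (Cell Signaling Technology 14069) and an Alexa488-conjugated secondary antibody, with scanning on a GenePix 4400A. Each sequence was printed as four replicate spots. Binding level is the spot fluorescence intensity, summarised across replicates and not normalised.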

Sequence	ETS1 binding intensity
GACGCTCTCTTCCTGTCTTTGGGGCTCCAGAAAGGC	5570
GGCCGTTCTTCCGCCTGCAGGGTGCTCAGCGGAGGT	2970
GCCTTTTGGGGTTTGTACCACTTCCTGCCTTTTCTG	4950
CAACCGAAGTAACACGCAATGCGGAAGGGCGAGGGG	494
TGGGCGCTGACGCGCAACCAGGAAGCGGCGGACACT	594
TGTTCGGTCGTTGTCTCGGGGGGTTGCAGGAAGATC	717
AGCACTCTGAGCGCATGCAAAGGAAGTTCCTTTCGC	468
GTAACAACACCCCAGCGGACAGGAAGAGGTCACCAA	829
TGTGTCAAGGCGCAGGCAGCGATTCCGGACTCTGGG	343
GGAGGTGGGGAGGAAGTTCTGAAACTACACACATTT	1560
GCTCCCTCTTGCCGCCCTTTTCCGGGGCAAGGGAAG	928
CTTCAGCCGCCACTTCCCCGCCCCCGGAGCCCGACA	760
AGAACAGGATGTTCTGAGTACAGCATGAACCTTAAA	3060
GTGTGAAGGAAGTGTGAGATCAAATCACAGCTGGGT	717
GTGAGACAAGACAACAGGCCACATTTCCTCTAAGTA	918
GCTCGCGTCATCCTGCAGCGCCGACACCAGAGACAC	861
CTTTTTGATTTCCTCAAGCATCCCAGAAATACACAG	2020
CCGTGCTTTGTTTTACATACCCCAGCATCCTGTATG	730
ACTCTGAGGGCCAAGAAAGGTGACCGGGCTTCCTTC	328
TTGCTGTCATCCTGTTCTCCCAGCTAAGCTACAGGA	2700
GAAGCCAGGAAATGGTGCGTGCGCGGGGCCGGGCGC	2210
GACTGGGAAGGAAGGGGAGGCGGCAAGCACCCTTCA	478
GCTGTCCGTTTCCGAGATGTTAATGCGCGATCTTGC	1460
CCAACGAGCACTTCCGCTTCCCGAAGCTCCAGCGGC	27700
CATGGGGAGGAGGAAGTGGTGGCGGGCGCTGGCCAG	1420
TGCGTAGGCGCAGCCAACGCGCCTTCCGGGTAGCCA	515
TGAAGGGACGGAAGGGACAGAACTTTCGGGAGGCAC	395

Sequence	ETS1 binding intensity
AATCCACCGCCATCCGCGGCCCGTAGGAACGCCAGG	367
TACGCTGTAGGCGGAGGCGGGCAGGAAATTCACTTA	677
TGGTGGCTATTTCCTCTCCCGCTGTAGTCCCTGGAG	3630
CGAAGAGGAAACAAAGAAAGGTGCTGTTCTGGCGCC	506
TACCATAAAACTTCCCTGGGGAAATCGCCCACTCCC	438
AGTCGTTCCGCCACCTCCCAGTCGGGTTTCGGCGGA	349
CAAAGTGATGGGGGAAATGGTTGTAGTTTTGGGTGG	514
CCTCTGCAGTCTCTGCAGCCGTTTGCATTTCCTGAA	539
TTGAGCGCCGTCTCGCCTCCGCTTCCTCCTCACTCC	433
GCTGCAAGGCGGAAGCAGCGCGCTCGGACGGGCATG	1590
AACACACACGTGGATTCTCACCACTTCCTGGATGTC	1540
AAATCAAAACCCCAATCAGATACCACTTCCTGCCCA	2350
ATAGTCACCGTTCCGGCCCTCCTCCACTGCACTTCT	489
CACGTGCGCGGGAGGGAAGCAGGAAGTGACAGCGGG	3100
GGGGCTGTGCTTCCGGCTGTTTGTGCGATTTTGTGC	6150
CCGGTCGGGGCTGCAGCCGCTTCCGGAGCCGCGGGC	3060
CCTTGCTACAGGATGTTTTGACAACGAGCCCAGGAG	1240
CTGAGCCGTAGACATGAAACCATGGCTTCCTTCACA	375
CGGCGGCCGCTGAGGGAGCCACAGGAAGTGAAGAGC	2130
CCGACTGCAGGGGCGGGGCCGGAGCCAGGAAGCGCT	518
AAATGTAGCCCGGAACCAAGTGTGCGCTGACGACTC	413
TCTGTAGGTTTACCTGTTCTGGATATTTCCTGTAAA	980
TTTCATATTTGTAGTTTTGGTGTTTCCTCTTACACA	865
GTGAGTCACTTCCTGACCATGTAGGTTTTTGGTACG	4020
CCTGGTCCGGAAGCGCTGTCCCCGCCTCCCGAATAG	3270
TGAAACTACAATTAAAAGCTCAGACATCCTCCCCTC	349
AGCTGGGGTGGGCTCCACCCAGTTTGAACTTCCTGG	595

Sequence	ETS1 binding intensity
GCCCTGCAGGCCCCGTTCCCGCCATTCCTTCCTGCC	438
TCACTGTCGTATCTGGAAGCAAAAGGAAATGTGCTC	470
TATGGGGCCGGAAGCCATTCACCCCAAACACTGTGT	4230
TCTCAAAGGAAGGGAAAGCTTGGCCTGCAGCACCCA	361
GGCCTCGCGGCGTCTCTGCTGCTTCCGCCTTCCCGG	854
TCCGCCCGCGGATGCTGAGAACAGCAGCTGCACAAG	396
CTTAAACCGGCCACGACAGCTCACCCATCCTGTCGG	438
TGATTCCTGTGCCTACAAGGCTCCCGGAAGTGTCAG	2190
TACAGCCAGGAAATGGGGAGGGTGCTGCAGGCGGCA	2100
CGACCCGGGGATGTGAGCGGAGTCTACGGCTGCGCT	323
CGGCAGCTGCACCGAAGGGACATCTTCCGCCAGAGC	384
AAAGGGCGGGGAAACGGAATTGCCGCGAGCTCTCCG	470
GGAAAAGGAAGTGGCTTTGACTCGCGGGCAGGGAGA	2310
CTAACCCTTCTCTTCCTGCAAAAACCCCAACAAAGG	1180 ± 270
ACGTGCTCAGATCCCCAACCCTTCCCGGAAAGGGGA	387
TAGGTCACCTCCGCGACACAGCAACGGAAGTAGGGT	1110
TCCCCTCTACAGCCCCAAGAATGGGAAATGGCTTGT	402
AGCTCCAGGAAGAGGGCCTGAACACCAAACGGGGGA	481
GACTCTTCCGGCCCAGAGCTTTCGGAGTGCGTTTGC	8040
GCCTGCCTGCAGGCGAGTGGAGTCAGGATGAGTGTC	313
TCTCTTCCTGTGATGGAAATACATTGGGGTTCGCGG	6720
CACCTCTCAGGAAGGACCGAGCCCGAAAGTCCCTCA	505
AAGAGTCGCGCTTTTCCACCAGGAAGTTGTCCAGTC	612
TCGCCCACTTCCCCACCTCTCAAAAGACAACAGGCA	1100
GACAAGCTACAGGTGAGTCAGCATGCCACTTCCCGA	400
AGCTGCAGGGTGTGCTCAGGAGAGGAAGCGAGGCCT	407
